Laboratory results as given in the supplement of paper PMC7726561.
Whole data set: some 1,100 sequences, median “thermal melting temperature (Tm) of peptide-HLA complex” near 58, cut for the lowest 2% near 42. This is one part of the list.
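Also: cell lysates heated 10 min at 37–73 °C, remaining pHLA pulled down with pan-class I antibody, peptides quantified by DIA-MS versus 37 °C, Tm where half the complex is lost.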

Each sequence was assayed against HLA-A*02:01 (assay: thermal melting temperature (Tm) of peptide-HLA complex; higher = more thermostable pHLA complex). Settings: C1R-A*02:01.
Work on RLSEFIPAVF yielded a thermal melting temperature of 63.7 °C.
YLKDGPYITA gave a thermal melting temperature of 60.3 °C.
Work on TLDITPHTV yielded a thermal melting temperature of 56.7 °C.
VLLEQPTWQL gave a thermal melting temperature of 54.3 °C.
For TLAEIAKAEL, the thermal melting temperature was 53.1 °C.
GLDPSGARLV gave a thermal melting temperature of 56.1 °C.
For TLITDGMRSV, the thermal melting temperature was 54.3 °C.
SLIGHLQTL showed a thermal melting temperature of 58.3 °C.
With VLADALKSI the thermal melting temperature was 58.9 °C.
SLAQYLINA was tested, and the thermal melting temperature was 56.7 °C.
Work on SLADDSVLERL yielded a thermal melting temperature of 57 °C.
Work on YQYPVIIHL yielded a thermal melting temperature of 58.5 °C.
Sequence HLAFQIYEA has a thermal melting temperature of 55.4 °C.
In the case of FLDESRSTQYM, the thermal melting temperature is reported as 60.7 °C.
Sequence GLDPQGDRSFL has a thermal melting temperature of 57 °C.
RLWNETVEL was tested, and the thermal melting temperature was 63.7 °C.
Work on LMVDHVTEV yielded a thermal melting temperature of 58.7 °C.
Work on HLAIKLEQV yielded a thermal melting temperature of 59.5 °C.
Sequence QLTNVILHL has a thermal melting temperature of 58.7 °C.
With RIIDTVAQV the thermal melting temperature was 60.6 °C.
FLDDVVHSL was tested, and the thermal melting temperature was 58.8 °C.
VLYPHEPTAV gave a thermal melting temperature of 61.6 °C.
FVMETFVHL showed a thermal melting temperature of 57 °C.
For SVMGNIIHV, the thermal melting temperature was 47.5 °C.
TVIAKVNNV showed a thermal melting temperature of 45.4 °C.
Sequence YVFENTVATV has a thermal melting temperature of 59.8 °C.
ILTESEIKL showed a thermal melting temperature of 55.2 °C.
For HLIDDLLAA, the thermal melting temperature was 41.1 °C.
KLLDIPGLEV was tested, and the thermal melting temperature was 61.3 °C.
SLSTAAGAAEL gave a thermal melting temperature of 60.9 °C.
For SLIDDNNEINL, the thermal melting temperature was 47.2 °C.
KLVEFDFLGA showed a thermal melting temperature of 59.7 °C.
For FILDFYEKV, the thermal melting temperature was 41.8 °C.
In the case of KLFEDELTL, the thermal melting temperature is reported as 56.1 °C.
With LMGPVVHEV the thermal melting temperature was 46.4 °C.
YIYDKDMEII was tested, and the thermal melting temperature was 57.2 °C.
